Measurements reported in ChEMBL document CHEMBL1201862, “PubChem BioAssay data set” (2004).
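Method: 48-hour compound exposure of cells in 96-well plates, five concentrations, linear interpolation of endpoints. At the GI50, growth is halved.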 Activity calls are given as the source filed them. No stated cut-off is given here; in the data, active = GI50 up to about 1.1 µM and inactive = higher.

Test system: NCI-H322M
Test: DTP human tumour cell line panel, 48 h

Row | Structure (SMILES) | GI50
1 | O=C(c1ccc([N+](=O)[O-])cc1)N1CCCC1 | inactive: > 100 µM
2 | Cc1nc2ccccc2c(=O)n1NC(=O)c1ccc([N+](=O)[O-])cc1 | inactive: > 100 µM
3 | O=C(O)CC1OCC=C2CN3CCC45C6=CC(=O)C(O)=C([N+](=O)[O-])C6=NC4C1C2CC35 (centres undefined) | inactive: > 100 µM
4 | CCN(CC)c1ccc2cc(-c3nc4ccccc4n3C)c(=O)oc2c1 | active: 0.52 µM
5 | CC1CN=C(NCc2ccccc2)S1 (centres undefined) | inactive: > 100 µM
6 | OCCSCc1ccccc1 | inactive: > 100 µM
7 | OCC1OC(n2cnc3c(SCc4ccccc4)ncnc32)C(O)C1O (centres undefined) | inactive: 5.35 µM
8 | CN(C)CCCNC(CC#N)CCC#N (centres undefined) | inactive: > 10 µM
9 | CC(=O)O[C@H]1CCC2[C@@H]3CCC4=C(O)C(=O)C(C#N)C[C@]4(C)C3CC[C@@]21C (some centres undefined) | inactive: 18.1 µM
10 | COC(=O)/N=C(\NC(=O)OC)Nc1ccc(Oc2ccccc2)cc1NC=O | active: 0.551 µM
11 | O=c1oc2ccccc2c(-c2ccc(O)cc2)c1Oc1ccccc1 | inactive: 17 µM
12 | COc1cc(C2C(Cl)C(=O)N2NC(=O)c2ccc(N)cc2)ccc1O (centres undefined) | inactive: 25.8 µM
13 | Cc1ccc(/C=N/Nc2nc3ccccc3s2)s1 | inactive: > 100 µM
14 | CCOC(=O)/C(C(N)=O)=C(/O)c1cnccn1 | inactive: > 100 µM
15 | O=C1/C(=C/c2ccc3c(c2)OCCO3)CCC/C1=C\c1ccc2c(c1)OCCO2 | inactive: 52 µM
16 | CC(=O)C1C(c2ccc(N(C)C)cc2)c2cc3c(cc2OC1(C)O)OCO3 (centres undefined) | inactive: 54.8 µM
17 | O=S(=O)(c1ccccc1)c1ccc(-c2nc(-c3ccc4c(c3)Sc3ccccc3S4)cs2)cc1 | inactive: 37.2 µM
18 | COc1ccc(/N=C(/SS/C(=N/c2ccc(OC)cc2)c2ccc([N+](=O)[O-])o2)c2ccc([N+](=O)[O-])o2)cc1 | inactive: 1.45 µM
19 | O=C(O)c1ccc(C(=O)O)c(C(=O)Nc2ccc3c(c2)C(=O)c2ccccc2-3)c1 | inactive: > 100 µM
20 | Brc1ccc(N2C[N+](c3ccc(Br)cc3)=NC(c3ccccc3)=N2)cc1 | inactive: 18.2 µM
21 | COc1ccc(C(=O)C#Cc2cnc(OC)nc2OC)cc1 | inactive: 15.2 µM
22 | Cc1c(CN2CCN(C)CC2)c(CN2CCN(C)CC2)c(C)n1-c1ccc(Cl)cc1 | inactive: 35.6 µM
23 | O=C(O)CCC(NC(=O)c1ccc(Oc2nc3ccccc3nc2-c2ccccc2)cc1)C(=O)O (centres undefined) | inactive: > 100 µM
24 | COc1ccc(/C=N/N=C(\N)NO)cc1OC | inactive: 40.1 µM

Row | Structure (SMILES) | GI50
25 | COc1ccc2cc(NC(=O)N/N=C\c3ccc([N+](=O)[O-])cc3)ccc2c1 | inactive: > 100 µM
26 | O=C(NCc1ccccc1Cl)c1c(O)c2ccccc2[nH]c1=O | inactive: > 100 µM
27 | CN(C)c1nc(NN)c2c(-c3ccccc3)c(-c3ccccc3)oc2n1 | inactive: > 100 µM
28 | Cc1nc(N)sc1/N=N/c1cc(Cl)c([N+](=O)[O-])cc1Cl | inactive: 14.4 µM
29 | Oc1ccc(Cl)cc1-c1nc(S)nc(-c2ccccc2)c1Cl | inactive: > 100 µM
30 | COc1ccc(/C=C/C(=O)c2cc(C(C)(C)C)c(O)c(C(C)(C)C)c2)cc1OC | inactive: 24.2 µM
31 | CC1(C)CC(=O)c2c(nc(SSc3nc4c(c(-c5ccccc5)c3C#N)C(=O)CC(C)(C)C4)c(C#N)c2-c2ccccc2)C1 | inactive: > 10 µM
32 | COc1ccc(OC)c(C2CCCc3c2cnc2nc(N)nc(N)c32)c1 (centres undefined) | active: < 0.0416 µM
33 | CCCc1nn(C)c(CCC(=O)N(Cc2ccccc2)Cc2ccccc2)c1CC | inactive: > 100 µM
34 | C=C1C(=O)OC2CC3(C)OC3CC/C(C)=C/C(OC(C)=O)C12 (centres undefined) | inactive: 14.6 µM
35 | CC(C)(C)OC(=O)NCCCCC(N)C(N)=O (centres undefined) | inactive: > 100 µM
36 | Clc1ccc(C(n2cc(Br)cn2)n2cc(Br)cn2)cc1 | inactive: 15.4 µM
37 | C/C(=C1/N=C(c2cc([N+](=O)[O-])ccc2Cl)N(c2ccc(Br)cc2)C1=O)c1ccc(N(CCC#N)CCC#N)cc1C | inactive: 58.2 µM
38 | CCOC(=O)c1cc2cc(Cc3ccc4[nH]c(C(=O)OCC)cc4c3)ccc2[nH]1 | inactive: 45.9 µM
39 | O=S(=O)(c1ccc(-c2nnc(-c3ccc(F)cc3)o2)cc1)c1ccc(-c2nnc(-c3ccc(F)cc3)o2)cc1 | inactive: > 100 µM
40 | Cc1cc(S(=O)(=O)Nc2nc3ccccc3n2-c2ccccc2)c(S)cc1Cl | inactive: 67.9 µM
41 | O=C(NCCc1n[nH]c2c1C(=O)C=C(Nc1ccccc1)C2=O)OCc1ccccc1 | inactive: > 100 µM
42 | Cc1c2n(c(=O)[nH]c1=O)C1OC(CO)C(O2)C1O (centres undefined) | inactive: > 100 µM
43 | Nc1nc(Cl)cc(NCC(O)CO)n1 (centres undefined) | inactive: > 100 µM
44 | CC12C=CC(C)(C3C(=O)C4C(C(=O)C31)C1(C)C=CC4(C)[S+]1[O-])[S+]2[O-] (centres undefined) | inactive: > 100 µM
45 | O=C1NC(N2CCOCC2)=N/C1=C\c1cccs1 | inactive: > 100 µM
46 | CC1=CC2=C(C#N)C(=O)OC2(C)C(c2ccccc2)C1 (centres undefined) | inactive: > 100 µM
47 | Cc1cc(C)cc(NC(=O)CCC(=O)C2CCC/C2=N\NC(=O)C(=O)NN)c1 (centres undefined) | inactive: > 100 µM
48 | O=S(=O)(O)c1ccc(/N=N/c2nc(C(F)(F)F)c(C(F)(F)F)[nH]2)cc1 | inactive: 31.6 µM

Row | Structure (SMILES) | GI50
49 | COC(=O)c1c(O)ccc(O)c1C(C(C)=O)C(C)=O | inactive: > 100 µM
50 | Cc1ccnc(NS(=O)(=O)c2ccc(NC(=O)c3ccc4nc5ccccc5c(Nc5ccc(S(=O)(=O)Nc6nccc(C)n6)cc5)c4c3)cc2)n1 | inactive: 50.6 µM
51 | O=c1[nH]nc(Nc2ccc(Cl)cc2)c2nnn(C3CCCCC3)c12 | inactive: > 100 µM
52 | C=C(C)CCOC(c1ccccc1)(c1ccccc1)c1ccccc1 | inactive: 84.1 µM
53 | CCOC(=O)C(C#N)(Cc1c[nH]c2ccccc12)NC(C)=O (centres undefined) | inactive: > 100 µM
54 | Cn1c(=O)c2nc3nnc(C#N)c(N)n3c2n(C)c1=O | inactive: > 100 µM
55 | CCC1(CC)SCc2nc3ccccc3n21 | inactive: 71.6 µM
56 | N=c1oc2ccc3ccccc3c2cc1-c1nc(O)c2ccccc2n1 | inactive: 32.5 µM
57 | CC[C@H](C)C1=C(OC(C)=O)[N@+]2([O-])Oc3ccc(-c4c(OC(C)=O)c(OC(C)=O)c(-c5ccc(OC(C)=O)cc5)c(OC(C)=O)c4OC(C)=O)cc3O[C@]2([C@@H](C)CC)C(=O)N1OC(C)=O | inactive: 12.7 µM
58 | O=C(CC(=O)N1N=C(N(c2ccccc2)c2ccccc2)CC1c1ccccc1)Nc1ccc(Cl)cc1 (centres undefined) | inactive: > 100 µM
59 | CCN(CC)/[N+]([O-])=N/OC | inactive: > 100 µM
60 | CCO[C@@H]1C2C=CC(C2)[C@H]1[N+](=O)[O-] (some centres undefined) | inactive: > 100 µM
61 | O=C[C@]12CC=C3OC4OC5(CCCCC5)OC4[C@H]3[C@H]1C(=O)C=CC2=O (some centres undefined) | inactive: 54.8 µM
62 | Cc1ccc(/C=C2/NC(=S)SC2=O)cc1 | inactive: 37.2 µM
63 | O=C1Nc2ccccc2N=CC1NC(=O)C(c1ccccc1)c1ccccc1 (centres undefined) | inactive: > 100 µM
64 | C=C[C@]1(C)CC[C@]2(C)C(CC[C@@]3(C)C2C[C@H](O)[C@H](O)[C@@]3(C)O)C1 (some centres undefined) | inactive: > 100 µM
65 | COc1ccc(CNc2cnc3cc(N)ccc3n2)cc1OC | inactive: > 100 µM
66 | N=C(N)NS(=O)(=O)c1ccc(NNc2c3ccccc3nc3ccccc23)cc1 | inactive: 12.6 µM
67 | O=[N+]([O-])C(=C(Sc1ccccc1)Sc1ccccc1)C(Cl)=C(Cl)Cl | inactive: 9.44 µM
68 | O=c1[nH]c2cc([N+](=O)[O-])c(N/N=C/c3ccc(Cl)cc3Cl)c([N+](=O)[O-])c2[nH]1 | inactive: 21.4 µM
69 | COc1cc(COC(=O)N2CCC2C(=O)O)c([N+](=O)[O-])cc1OC (centres undefined) | inactive: > 100 µM
70 | COc1ccc2nc3ccc(OC)cc3c(SCC3CO3)c2c1 (centres undefined) | inactive: 18.8 µM
71 | O=C(NC1CCCCC1)N1CCNC1=S | inactive: > 100 µM
72 | CC(C)C/N=C(\N)N=C(N)N | inactive: > 100 µM

Row | Structure (SMILES) | GI50
73 | O=C1CCC[C@]2(CCCC(=O)N2)C1 | inactive: > 100 µM
74 | C=CC(=C)CCC(Br)C(C)(C)Cl (centres undefined) | inactive: > 100 µM
75 | Cc1ccc(S(=O)(=O)C(C#N)c2nc3ccccc3nc2N2CCOCC2)cc1 (centres undefined) | inactive: 20.6 µM
76 | CC1=CCC[C@@]2(C)C(CC[C@@H]2C(C)/C=C/C(C)C)c2ccc(cc2C(=O)O)C[C@@H](O)CC1 (some centres undefined) | inactive: 10.5 µM
77 | CC(C)CCCC(C)[C@H]1CC[C@H]2N/C(=N/c3ccccc3)CCC[C@]12C (some centres undefined) | inactive: 6.81 µM
78 | Cc1nc(NC(C)(CO)CO)nc(N/N=C/c2ccc(Cl)cc2)c1C(=O)Nc1ccc(Cl)cc1 | inactive: > 100 µM
79 | N=c1c2c(=S)n(-c3ccccc3)c(=S)n(-c3ccccc3)c2nc(SCCCN2CCCCC2)n1-c1ccccc1 | inactive: 1.88 µM
80 | CC(=O)OCC(OC(C)=O)C(OC(C)=O)C(OC(C)=O)C(/C=N\Nc1nc2ccccc2c(=O)[nH]1)OC(C)=O (centres undefined) | inactive: > 100 µM
81 | Cc1cccc(CC(Cc2ccc(C)cc2C(=O)O)C(=O)O)c1 (centres undefined) | inactive: > 100 µM
82 | CNC(=S)NNC(=O)c1c(C)nc2sccn12 | inactive: > 100 µM
83 | Nc1ccc2n[se]nc2c1 | inactive: 97.5 µM
84 | COc1ccc2c(c1)C1=NCCN(C)c3ccc([N+](=O)[O-])c(c31)N2 | inactive: 1.26 µM
85 | Cc1nn(C)c(=O)c2nn(-c3ccccc3)c(C)c12 | inactive: > 100 µM
86 | CC(C)[Si](OC1=C(C(=O)Nc2ccccc2Cl)CCCCC1)(C(C)C)C(C)C | inactive: > 100 µM
87 | Oc1nnnc2c1sc1ncccc12 | inactive: > 100 µM
88 | CCOC(=O)N(C)CCC1CC=CC(=O)C1c1cccc(OC)c1OC (centres undefined) | inactive: 29.4 µM
89 | Clc1ccc(Cc2nc3ccccc3s2)c(Cl)c1 | inactive: 18.8 µM
90 | COC(=O)[C@]1(C)CCC[C@@]2(C)C1CCC1=CC3(C(C)C)CCC12OO3 (some centres undefined) | inactive: > 100 µM
91 | CC1CC[C@@]23CCC4(C)[C@@](C=CC5[C@@]6(C)CCC(=O)C(C)(C)C6CC[C@]54C)(OC2=O)[C@@H]3[C@H]1C (some centres undefined) | inactive: 21.7 µM
92 | COc1ccc(C(=O)c2cc(OC)c(OC)c(OC)c2)cc1 | active: 0.209 µM
93 | O=C(/C=C/c1ccccc1)c1cc(CN2CCOCC2)c(O)c(CN2CCOCC2)c1 | inactive: 20.3 µM
94 | COc1cc(CNc2ccc(SC)cc2)cc(OC)c1OC | inactive: 29.6 µM
